# Assay results as given in CN116284427A (SUNSHINE GUOJIAN PHARMACEUTICAL SHANGHAI CO LTD, dated 2023).
# B1: anti-MUC17×CD3 BsAb CM1 (bispecific antibody, human IgG1, kappa)
# heavy: QVQLVQSGAEVKKPGASVKVSCKASGYSFTIYWMHWVRQAPGQGLEWIGMSHPSDSESRLNQKFKDRATLTVDKSTSTAYMELSSLRSEDTAVYYCSRPYYGSSAWFADWGQGTLVTVSA[human IgG1 constant region not printed]GGGGSGGGGSGGGGSQAVVTQEPSLTVSPGGTVTLTCRSSTGAVTTSNYANWVQQKPGQAPRGLIGGTNKRAPGVPARFSGSLLGGKAALTLSGAQPEDEAEYYCALWYSNLWVFGQGTKVEIKGGGGSGGGGSGGGGSGGGGSEVQLVESGGGLVQPGGSLRLSCAASGFTFNTYAMNWVRQAPGKGLEWVARIRSKYNNYATYYADSVKDRFTISRDDSKNTLYLQMNSLRAEDTAVYYCVRHGNFGNSYVSWFAYWGQGTLVTVSS
# light: DIVMTQSPDSLAVSLGERATINCKSSQSLLNSSNQKNYLAWYQQKPGQSPKLLIYFASTRESGVPDRFSGSGSGTDFTLTISSLQAEDVAVYYCQQHYSFPLTFGAGTKLELRRTVAAPSVFIFPPSDEQLKSGTASVVCLLNNFYPREAKVQWKVDNALQSGNSQESVTEQDSKDSTYSLSSTLTLSKADYEKHKVYACEVTHQGLSSPVTKSFNRGEC
# notes: copies follow the symmetric IgG format (structure A: 2 heavy, 2 light)
# B2: anti-MUC17×CD3 BsAb CM2 (bispecific antibody, human IgG1, kappa)
# heavy: QVQLVQSGAEVKKPGASVKVSCKASGYSFTIYWMHWVRQAPGQGLEWIGMSHPSDSESRLNQKFKDRATLTVDKSTSTAYMELSSLRSEDTAVYYCSRPYYGSSAWFADWGQGTLVTVSA[human IgG1 constant region not printed]GGGGSGGGGSGGGGSEVQLVESGGGLVQPGGSLRLSCAASGFTFNTYAMNWVRQAPGKGLEWVARIRSKYNNYATYYADSVKDRFTISRDDSKNTLYLQMNSLRAEDTAVYYCVRHGNFGNSYVSWFAYWGQGTLVTVSSGGGGSGGGGSGGGGSGGGGSQAVVTQEPSLTVSPGGTVTLTCRSSTGAVTTSNYANWVQQKPGQAPRGLIGGTNKRAPGVPARFSGSLLGGKAALTLSGAQPEDEAEYYCALWYSNLWVFGQGTKVEIK
# light: B1 light
# B3: anti-MUC17×CD3 BsAb CM3 (bispecific antibody, human IgG1, kappa)
# heavy: EVQLVESGGGLVQPGGSLRLSCAASGFTFNTYAMNWVRQAPGKGLEWVARIRSKYNNYATYYADSVKDRFTISRDDSKNTLYLQMNSLRAEDTAVYYCVRHGNFGNSYVSWFAYWGQGTLVTVSSGGGGSGGGGSGGGGSGGGGSQAVVTQEPSLTVSPGGTVTLTCRSSTGAVTTSNYANWVQQKPGQAPRGLIGGTNKRAPGVPARFSGSLLGGKAALTLSGAQPEDEAEYYCALWYSNLWVFGQGTKVEIKGGGGSGGGGSGGGGSQVQLVQSGAEVKKPGASVKVSCKASGYSFTIYWMHWVRQAPGQGLEWIGMSHPSDSESRLNQKFKDRATLTVDKSTSTAYMELSSLRSEDTAVYYCSRPYYGSSAWFADWGQGTLVTVSA[human IgG1 constant region not printed]
# light: B1 light
# B4: anti-MUC17×CD3 BsAb CM4 (bispecific antibody, human IgG1, kappa)
# heavy: QAVVTQEPSLTVSPGGTVTLTCRSSTGAVTTSNYANWVQQKPGQAPRGLIGGTNKRAPGVPARFSGSLLGGKAALTLSGAQPEDEAEYYCALWYSNLWVFGQGTKVEIKGGGGSGGGGSGGGGSGGGGSEVQLVESGGGLVQPGGSLRLSCAASGFTFNTYAMNWVRQAPGKGLEWVARIRSKYNNYATYYADSVKDRFTISRDDSKNTLYLQMNSLRAEDTAVYYCVRHGNFGNSYVSWFAYWGQGTLVTVSSGGGGSGGGGSGGGGSQVQLVQSGAEVKKPGASVKVSCKASGYSFTIYWMHWVRQAPGQGLEWIGMSHPSDSESRLNQKFKDRATLTVDKSTSTAYMELSSLRSEDTAVYYCSRPYYGSSAWFADWGQGTLVTVSA[human IgG1 constant region not printed]
# light: B1 light
# Target: CD3 (CD3-TCR complex) on Promega PD1 effector cells (Jurkat T cells) (human)
# Assay: cell-based or functional assay
EC 50,Top,Binder
4.95 nM,28300,B1
4.8 nM,54400,B2
1.76 nM,28400,B3
3.17 nM,24000,B4

# Target: MUC17 on LS174T cells (human, UniProt Q685J3)
# Assay: flow cytometry on LS174T cells, PE goat anti-human Fc
row,binding result,Binder
1,binds,B1
2,binds,B3
3,binds,B4

# Target: T1, Human CD3 epsilon&CD3 delta Heterodimer Protein (human, UniProt P07766 23-126; P04234 22-105)
# T1 construct: Bought heterodimer; also called Human CD3 epsilon&CD3 delta Heterodimer蛋白; CD3抗原
# T1 sequence (P07766 23-126, stated change not applied, chain 1 of 2): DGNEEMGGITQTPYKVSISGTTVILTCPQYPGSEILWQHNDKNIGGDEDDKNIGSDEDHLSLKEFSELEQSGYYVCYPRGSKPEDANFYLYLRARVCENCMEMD
# T1 sequence (P04234 22-105, stated change not applied, chain 2 of 2, further chain): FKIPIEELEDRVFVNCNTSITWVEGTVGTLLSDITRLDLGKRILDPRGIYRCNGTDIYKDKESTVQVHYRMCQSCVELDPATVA
# Assay: ELISA, CD3 epsilon/delta heterodimer coated at 50 ng/mL, HRP goat anti-human Fc
row,binding result,Binder
1,binds,B1
2,binds,B2
3,binds,B3
4,binds,B4
